Values marked as one replicate rest on one cluster of the flow cell; about a third of the high ones do not repeat.
Tested on: ATP
Assay: switch fluorescence ratio, 500 uM ATP over buffer (Cy3 cluster intensity, sum of 5 cycles each) (fold (ratio)); higher = stronger signal-on switching upon ATP binding; sequences stand for … in TCGTCGGCAGCGTCAGATGTGTATAAGAGACAGTTTTTTTTTTTTTTTTTTTTTTTTT…TC
Settings: aptamer strand: ATP DNA aptamer (quencher-CACCTGGGGGAGTATTGCGGAGGAAGG + anchor), 100 nM annealed; ATP concentration: 500 uM; one replicate
Summary of the method: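 Per cluster, summed Cy3 intensity from the target cycles was divided by that from the buffer cycles to give the fluorescence ratio, then averaged per switch-domain sequence. Clusters outside 100-1000 RFU were excluded. The Cy3-labelled switching-strand clusters, on a modified Illumina MiSeq flow-cell, were annealed to 100 nM quencher-labelled ATP aptamer and imaged in selection buffer, then after 15 min with 500 uM ATP at 22 °C, for five cycles with NaOH stripping and re-annealing between them.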
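Further: ATP exposure 15 min at 22 °C before imaging.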

Sequence | switch fluorescence ratio
CGTCGATCCG | 0.915
GCGGGCGCCG | 0.988
GCTGTAAGCT | 1.01
GGGTCTTACC | 0.98
CAGTTGCAAA | 0.978
AAGATAGTGG | 1.02
TGCCCACC | 1.18
ACTCGAAAAG | 1.01
TCCTTAGCAG | 2.64
TGCGATGGGC | 1.02
CGGATTGTTG | 0.965
AACAGGTAAG | 1.43
TACAACAATT | 1.05
AATGTATGAA | 0.975
TAGTCGGTTG | 1.04
ATTGATCCGA | 0.974
TTGGGACGCG | 1.11
CGAAAGGCCG | 0.982
CCTCATGCGT | 3.27
GGATAGTATT | 0.999
GTGCGGGCGA | 0.987
AGGTATTACT | 1.02
CAGGTTGT | 1.02

Sequence | switch fluorescence ratio
ATCCGCCCT | 1.28
ATTCACGGTT | 0.952
CTCCTGTATA | 1.24
GACATGGTGC | 1.21
AACTTTTC | 1.07
TTTATAAATC | 0.954
GGGTATAAGT | 0.979
GACAGAAAGT | 0.993
TGATCTTGAC | 1.01
ACATACGGT | 1.29
CGTGCGCAGA | 1.39
GGTTTTCGTA | 1.01
CGTACCACGA | 1
TGGCAAAGGT | 1.01
CGTCTCGAAG | 0.967
TAGTACTGG | 1.05
TTCCAGTGCA | 1.05
CGATGGGAAG | 0.992
CAGAGAATA | 1.02
GTTATCGCAG | 1.02
CGAAAGGAAG | 1.01
ACGCAGTGCC | 1.11
CCGTCGACTT | 1.05

Sequence | switch fluorescence ratio
AGCCCAACCA | 1.02
TACCGTA | 1.07
GTACGATAGT | 1.05
GCACGCGCCG | 1.1
CAATGGAGGT | 0.981
TTCAAAGCGG | 1.04
AAGAGGCTTT | 1.05
CTGGGTCCGT | 1.11
TGTGTTGTAA | 0.987
CAACAACATG | 1.02
AAGTAAGGGT | 1.01
ATAGTTAT | 0.99
TGGGCTAAGG | 1.01
TTACAACGAT | 0.968
GCGAACAAAC | 1.12
CAATAACTTT | 1.01
TTAAATTTAT | 0.954
TGTGTATGT | 1.01
TAGTAGTTGA | 1.05
TTGCAAACGA | 1.14
ACGAGGCGCT | 0.985
TAGCTTCGTT | 1.12
ACGCGCGCTT | 0.997

Sequence | switch fluorescence ratio
CTGGGCACTG | 0.992
GGACTGGCAG | 0.981
GTGTGCGCGA | 1.01
ACATGATCTT | 0.985
CGACGGTGAT | 1.21
ATCACGGCAC | 2.08
TCCTGTATCA | 1.05
CCTCAGCATA | 3.35
GTAAGACCAA | 0.995
TAGACACGTA | 1.12
TTCTGGGGAA | 1.11
GGAACATGGT | 0.929
TCTAAGGATG | 0.985
TCGACTCGGA | 1
GATCCAAAGT | 0.962
ATGCTCGGCA | 1.02
AATGATAACG | 1.04
GGCCCCCTAT | 0.996
GATTTCAATA | 0.987
GCTGTTAGGC | 1
TACTAACAGA | 1.08
GATATCCGG | 1.01
TTAAATGCGA | 1.03

Sequence | switch fluorescence ratio
TCAATGCTGT | 1.01
GCGGATCTAG | 0.996
ACACTCTTTT | 1.01
CTATGTGCCT | 1.03
TGTATCGAAG | 0.965
ACGCAGGCAC | 2.19
GACGGGCGCG | 1.01
GGGCGAGTTA | 1.04
TAATTTAGCA | 1
TAGTTTTCTC | 0.987
TCATTCATC | 1.03
CCGCGAAGGC | 2.14
TTACAAAGCT | 1.15
ATTTCAAGGG | 0.97
CCCCAAGAAA | 1.13
AACATCGTCA | 0.971
GGTCGAGTTA | 1.02
GGGACACTGT | 1.02
AGCTTAGTCC | 1.15
ACAAGTAGGT | 1.02
TATCTTAGT | 1.03
CTAGCCAAGC | 1.06
GCAAGGTATC | 1.05

Sequence | switch fluorescence ratio
GTTTAGTGT | 1.02
AAGGAACAGC | 1.01
CATAGATCAT | 0.998
ATGGGGTGT | 0.968
TAATTTCATC | 0.985
TCAAAGAGTA | 0.953
CTGGGAGCA | 1.17
TCGTCTTCTA | 0.992
TGGCCAGCTA | 1.01
AAGATGTAGA | 1.06
TGTAACTTC | 1.05
TGATATGGTG | 0.985
CTCGGCACGC | 2.89
TGCCTCTGGT | 0.986
CTCACCGCCG | 1.12
CAATAACAGT | 0.99
AATAGTTAGT | 0.978
TGACACTTCC | 2.58
AATGTTCG | 0.968
CTACCTCTTT | 1.06
AGTCTGGACA | 1.02
TGCGGTTGG | 1.01
ATTCTAGAAT | 0.929

Sequence | switch fluorescence ratio
CGACTACCGG | 1.03
TCGGAAAAA | 1
GGGAATGCGA | 1.02
AGCTCACACC | 1.08
GTCAGAGCAA | 1.9
CTCGTCCTAG | 1.04
CACCAGATTG | 1.04
ACTCCCCTGC | 3.31
GTTGGGTCCA | 0.986
ATCGATTTGG | 0.988
CTTTGTTAGC | 1.37
ATCGGCGATA | 1.01
CGGAGTGGCC | 0.976
GGAGAAGATA | 0.99
CCAGTATTC | 0.994
GCCAGTTAAT | 1.01
CTGGGGGCTG | 0.948
TAGAAGAGGC | 0.955
CGGGTTATCG | 0.986
TGCGCCGACG | 0.986

Source: the supplement of paper PMC10126150
